Measured values from PMC12820563, “FoxP3 forms a head-to-head dimer in vivo and stabilizes its multimerization on adjacent microsatellites”.
The list shows a part of the results.

Biological target: T1, MBP-FoxP1dN (Mus musculus, UniProt P58462 326-579)
T1 sequence: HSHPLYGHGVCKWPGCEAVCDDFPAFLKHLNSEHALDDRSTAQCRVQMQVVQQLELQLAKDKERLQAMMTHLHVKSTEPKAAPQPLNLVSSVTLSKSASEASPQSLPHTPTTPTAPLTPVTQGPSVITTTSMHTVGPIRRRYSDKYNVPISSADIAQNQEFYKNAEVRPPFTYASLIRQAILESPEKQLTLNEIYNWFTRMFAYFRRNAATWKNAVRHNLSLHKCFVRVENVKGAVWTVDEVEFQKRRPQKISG
Assay: PD-seq (MBP pull-down with sequencing); 20 mM Tris-HCl pH 7.5, 100 mM NaCl, 1.5 mM MgCl2, 0.4 uM protein, 0.1 uM dsDNA library, 30 min, room temperature, amylose pull-down; high values mean tight binding
Conditions: protein: recombinant; tags: His6-MBP; chain copies: 2; dsDNA, one strand shown
Method in brief: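 A degenerate double-stranded DNA library, filled in with Klenow, was added at 0.1 µM to 0.4 µM His6-MBP-tagged mouse FoxP3 or FoxP1 fragment lacking the N-terminus, expressed in E. coli. Incubation lasted 30 min at room temperature in Tris pH 7.5 buffer with NaCl and MgCl2, after which complexes were collected on amylose resin, washed three times, digested with proteinase K to free the DNA, barcoded by PCR and sequenced by Illumina. Binding is the pooled-replicate reads-per-million enrichment of pull-down over input.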

| Sequence | binding signal |
| --- | --- |
| GATGATTGTTCTCCCAGCTGATGAATTTAGCCCCTCGAGTAAACAAATTTTCCTAATCTTTCTGTTCAAGCGCCATCTAC | 0.86 RPM ratio (pull-down/input) |
| GATGATTGTTCTCCCAGCTGATGAATTAAGAACGTCGAGTAAACAAATTTTCCTAATCTTTCTGTTCAAGCGCCATCTAC | 0.857 RPM ratio (pull-down/input) |
| GATGATTGTTCTCCCAGCTGATGAATTGCCCATTTCGAGTAAACAAATTTTCCTAATCTTTCTGTTCAAGCGCCATCTAC | 0.968 RPM ratio (pull-down/input) |
| GATGATTGTTCTCCCAGCTGATGAATTTACTCGTTCGAGTAAACAAATTTTCCTAATCTTTCTGTTCAAGCGCCATCTAC | 1.18 RPM ratio (pull-down/input) |
| GATGATTGTTCTCCCAGCTGATGAATTGATAGATTCGAGTAAACAAATTTTCCTAATCTTTCTGTTCAAGCGCCATCTAC | 1.12 RPM ratio (pull-down/input) |
| GATGATTGTTCTCCCAGCTGATGAATTAGCATCGTCGAGTAAACAAATTTTCCTAATCTTTCTGTTCAAGCGCCATCTAC | 1.12 RPM ratio (pull-down/input) |
| GATGATTGTTCTCCCAGCTGATGAATTCCATGTTTCGAGTAAACAAATTTTCCTAATCTTTCTGTTCAAGCGCCATCTAC | 0.972 RPM ratio (pull-down/input) |
| GATGATTGTTCTCCCAGCTGATGAATTATCCATGTCGAGTAAACAAATTTTCCTAATCTTTCTGTTCAAGCGCCATCTAC | 0.987 RPM ratio (pull-down/input) |
| GATGATTGTTCTCCCAGCTGATGAATTCCGGGGATCGAGTAAACAAATTTTCCTAATCTTTCTGTTCAAGCGCCATCTAC | 0.783 RPM ratio (pull-down/input) |
| GATGATTGTTCTCCCAGCTGATGAATTTCGTAAATCGAGTAAACAAATTTTCCTAATCTTTCTGTTCAAGCGCCATCTAC | 1.23 RPM ratio (pull-down/input) |
| GATGATTGTTCTCCCAGCTGATGAATTACTGATTTCGAGTAAACAAATTTTCCTAATCTTTCTGTTCAAGCGCCATCTAC | 1.24 RPM ratio (pull-down/input) |
| GATGATTGTTCTCCCAGCTGATGAATTATATGCGTCGAGTAAACAAATTTTCCTAATCTTTCTGTTCAAGCGCCATCTAC | 1.27 RPM ratio (pull-down/input) |
| GATGATTGTTCTCCCAGCTGATGAATTCGACGCCTCGAGTAAACAAATTTTCCTAATCTTTCTGTTCAAGCGCCATCTAC | 0.928 RPM ratio (pull-down/input) |
| GATGATTGTTCTCCCAGCTGATGAATTGTCATAGTCGAGTAAACAAATTTTCCTAATCTTTCTGTTCAAGCGCCATCTAC | 1.1 RPM ratio (pull-down/input) |
| GATGATTGTTCTCCCAGCTGATGAATTGACATACTCGAGTAAACAAATTTTCCTAATCTTTCTGTTCAAGCGCCATCTAC | 1.3 RPM ratio (pull-down/input) |
| GATGATTGTTCTCCCAGCTGATGAATTCCAGTGGTCGAGTAAACAAATTTTCCTAATCTTTCTGTTCAAGCGCCATCTAC | 0.837 RPM ratio (pull-down/input) |
| GATGATTGTTCTCCCAGCTGATGAATTCATTAAATCGAGTAAACAAATTTTCCTAATCTTTCTGTTCAAGCGCCATCTAC | 1.09 RPM ratio (pull-down/input) |
| GATGATTGTTCTCCCAGCTGATGAATTAGTTCGGTCGAGTAAACAAATTTTCCTAATCTTTCTGTTCAAGCGCCATCTAC | 0.768 RPM ratio (pull-down/input) |
| GATGATTGTTCTCCCAGCTGATGAATTCCTGATCTCGAGTAAACAAATTTTCCTAATCTTTCTGTTCAAGCGCCATCTAC | 0.831 RPM ratio (pull-down/input) |
| GATGATTGTTCTCCCAGCTGATGAATTAACTTAGTCGAGTAAACAAATTTTCCTAATCTTTCTGTTCAAGCGCCATCTAC | 0.912 RPM ratio (pull-down/input) |

| Sequence | binding signal |
| --- | --- |
| GATGATTGTTCTCCCAGCTGATGAATTTCATCACTCGAGTAAACAAATTTTCCTAATCTTTCTGTTCAAGCGCCATCTAC | 0.969 RPM ratio (pull-down/input) |
| GATGATTGTTCTCCCAGCTGATGAATTCGAGGGTTCGAGTAAACAAATTTTCCTAATCTTTCTGTTCAAGCGCCATCTAC | 0.844 RPM ratio (pull-down/input) |
| GATGATTGTTCTCCCAGCTGATGAATTCGTACGCTCGAGTAAACAAATTTTCCTAATCTTTCTGTTCAAGCGCCATCTAC | 0.894 RPM ratio (pull-down/input) |
| GATGATTGTTCTCCCAGCTGATGAATTACTCCAGTCGAGTAAACAAATTTTCCTAATCTTTCTGTTCAAGCGCCATCTAC | 1.03 RPM ratio (pull-down/input) |
| GATGATTGTTCTCCCAGCTGATGAATTACGGAATTCGAGTAAACAAATTTTCCTAATCTTTCTGTTCAAGCGCCATCTAC | 1 RPM ratio (pull-down/input) |
| GATGATTGTTCTCCCAGCTGATGAATTATTTGATTCGAGTAAACAAATTTTCCTAATCTTTCTGTTCAAGCGCCATCTAC | 1.05 RPM ratio (pull-down/input) |
| GATGATTGTTCTCCCAGCTGATGAATTTTTCACGTCGAGTAAACAAATTTTCCTAATCTTTCTGTTCAAGCGCCATCTAC | 0.902 RPM ratio (pull-down/input) |
| GATGATTGTTCTCCCAGCTGATGAATTTATTGTGTCGAGTAAACAAATTTTCCTAATCTTTCTGTTCAAGCGCCATCTAC | 1.88 RPM ratio (pull-down/input) |
| GATGATTGTTCTCCCAGCTGATGAATTTATCCGTTCGAGTAAACAAATTTTCCTAATCTTTCTGTTCAAGCGCCATCTAC | 1.12 RPM ratio (pull-down/input) |
| GATGATTGTTCTCCCAGCTGATGAATTATGTAACTCGAGTAAACAAATTTTCCTAATCTTTCTGTTCAAGCGCCATCTAC | 1.15 RPM ratio (pull-down/input) |
| GATGATTGTTCTCCCAGCTGATGAATTATGCGGGTCGAGTAAACAAATTTTCCTAATCTTTCTGTTCAAGCGCCATCTAC | 0.927 RPM ratio (pull-down/input) |
| GATGATTGTTCTCCCAGCTGATGAATTTGCTACTTCGAGTAAACAAATTTTCCTAATCTTTCTGTTCAAGCGCCATCTAC | 1.09 RPM ratio (pull-down/input) |
| GATGATTGTTCTCCCAGCTGATGAATTTCAGAGTTCGAGTAAACAAATTTTCCTAATCTTTCTGTTCAAGCGCCATCTAC | 0.735 RPM ratio (pull-down/input) |
| GATGATTGTTCTCCCAGCTGATGAATTATGTGGATCGAGTAAACAAATTTTCCTAATCTTTCTGTTCAAGCGCCATCTAC | 1.08 RPM ratio (pull-down/input) |
| GATGATTGTTCTCCCAGCTGATGAATTCCCTCAATCGAGTAAACAAATTTTCCTAATCTTTCTGTTCAAGCGCCATCTAC | 0.866 RPM ratio (pull-down/input) |
| GATGATTGTTCTCCCAGCTGATGAATTTCAGATGTCGAGTAAACAAATTTTCCTAATCTTTCTGTTCAAGCGCCATCTAC | 0.87 RPM ratio (pull-down/input) |
| GATGATTGTTCTCCCAGCTGATGAATTTCCTCTATCGAGTAAACAAATTTTCCTAATCTTTCTGTTCAAGCGCCATCTAC | 0.876 RPM ratio (pull-down/input) |
| GATGATTGTTCTCCCAGCTGATGAATTCTATGAGTCGAGTAAACAAATTTTCCTAATCTTTCTGTTCAAGCGCCATCTAC | 0.887 RPM ratio (pull-down/input) |
| GATGATTGTTCTCCCAGCTGATGAATTACGAGATTCGAGTAAACAAATTTTCCTAATCTTTCTGTTCAAGCGCCATCTAC | 0.943 RPM ratio (pull-down/input) |
| GATGATTGTTCTCCCAGCTGATGAATTTATCGTCTCGAGTAAACAAATTTTCCTAATCTTTCTGTTCAAGCGCCATCTAC | 1.17 RPM ratio (pull-down/input) |
